According to PubChem BioAssay AID1477 (National Center for Advancing Translational Sciences (NCATS), 2009):
Fewer than 10 of roughly 230,000 compounds were called active. This list was built around the results that the source calls inconclusive (neither active nor inactive); the mix of calls is not that of the screen. The call rests on the fitted dose curve; in most records, active means well fitted curve in the direction sought with a large enough effect; inconclusive means small, poorly fitted or top-dose-only effect, or effect the other way, or another doubt; inactive means no such curve, though single readings can be large or run the other way. Potencies of inconclusive entries are left out as doubtful fits.

biological target: Runt-related transcription factor 1 (Homo sapiens) + Core-binding factor subunit beta (Homo sapiens) (UniProt Q01196+Q13951); experiment: qHTS Assay for Compounds Blocking the Interaction Between CBF-beta and RUNX1 for the Treatment of Acute Myeloid Leukemia; conditions: AlphaScreen CBFb-His/RUNX1-biotin binding, biochemical; activity, negative = inhibition: at 59.8 µM (top of the series) unless noted; on activity, negative = inhibition: % of control where 0% means no effect
UniProt Q01196, sequence (Q01196 whole entry, looked up): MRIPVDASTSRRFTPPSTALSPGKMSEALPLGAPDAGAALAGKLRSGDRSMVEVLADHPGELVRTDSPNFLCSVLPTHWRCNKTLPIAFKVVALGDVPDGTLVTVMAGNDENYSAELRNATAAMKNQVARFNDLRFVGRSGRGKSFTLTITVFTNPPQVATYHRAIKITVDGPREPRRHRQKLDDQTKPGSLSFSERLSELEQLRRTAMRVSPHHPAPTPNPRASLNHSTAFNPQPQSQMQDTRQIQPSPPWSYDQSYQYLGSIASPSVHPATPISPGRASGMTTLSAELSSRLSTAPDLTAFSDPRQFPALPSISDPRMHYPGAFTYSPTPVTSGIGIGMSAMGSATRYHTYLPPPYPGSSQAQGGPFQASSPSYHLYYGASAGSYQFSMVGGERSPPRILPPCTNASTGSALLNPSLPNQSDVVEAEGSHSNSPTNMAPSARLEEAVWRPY
UniProt Q01196, sequence (Q13951 whole entry, looked up): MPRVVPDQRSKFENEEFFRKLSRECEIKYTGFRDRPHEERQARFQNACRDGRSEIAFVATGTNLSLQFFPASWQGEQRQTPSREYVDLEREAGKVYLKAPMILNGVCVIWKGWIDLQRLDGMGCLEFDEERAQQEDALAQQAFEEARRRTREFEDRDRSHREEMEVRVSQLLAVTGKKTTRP
Summary of the method: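 AlphaScreen binding: CBFb-His and RUNX1-biotin (30 nM each) preincubated 20 min, compound added for 15 min, then nickel and streptavidin beads for 90 min, all at room temperature. Disruption of the interaction by any mechanism counts as activity.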

Compound | Potency | activity, negative = inhibition
CCCCCCCCCCCCC/C=C/[C@@H](O)[C@@H](N)CO | inconclusive [activator, partial curve, poor fit] | 
O=[N+]([O-])c1cc(Cl)c2cccnc2c1O | inconclusive [inhibitor, single point] | 
COc1cc(CNc2ccc(N3CCN(C(C)=O)CC3)cc2)ccc1OCc1ccc(F)cc1 | inconclusive [inhibitor, single point] | 
O=C(O)c1ccc(NC2=C(Cl)C(=O)c3ccccc3C2=O)cc1 | inconclusive [inhibitor, single point] | 
CC(C)(CSc1ccccn1)NS(=O)(=O)c1ccccc1 |  | inactive: -5.4%
C[n+]1cccc2c(Br)ccc([O-])c21 | inconclusive [inhibitor, single point] | 
O=C(N/N=C/c1cc(Cl)ccc1O)c1ccncc1 | inconclusive [inhibitor, partial curve] | 
COc1ccccc1C1=NC(c2ccc(C)cc2)N=C1C (stereo unspecified) | inconclusive [activator, single point] | 
COc1ccc(NC(=O)/C=C/c2ccccc2[N+](=O)[O-])c(OC)c1 |  | inactive: -14.4%
CCSc1nc(C2CC2)cc(-c2cccs2)c1C#N | inconclusive [activator, single point] | 
Cc1cc(C)c(S(C)(=O)=O)c(NN)n1 | inconclusive [activator, full curve] | 
Cc1ccc(S(=O)(=O)c2nc(-c3ccccc3)oc2NCCCN2CCOCC2)cc1 |  | inactive: -11.2%
COc1ccc(NC(C)=O)cc1S(=O)(=O)Nc1ccc(C(=O)N2CCCC2)cc1 | inconclusive [activator, partial curve, poor fit] | 
Cn1cccc1/C=C1\SC(=Nc2cccc(O)c2)NC1=O | inconclusive [inhibitor, single point] | 
Cc1noc(/C=C/N(C)C)c1S(=O)(=O)N1CCCC(C(=O)NC(C)c2ccccc2)C1 (stereo unspecified) |  | inactive: 10.1%
OC[C@@H]1[C@@H](c2ccccc2)C(c2cccc(Cl)c2)=NN1c1ccccc1 | inconclusive [activator, partial curve] | 
CNNC(=O)C(C)NC(=O)c1ccc(Br)cc1 (stereo unspecified) | inconclusive [inhibitor, single point] | 
O=S(=O)(c1ccccc1Cl)N1CCCC1c1nc(-c2cccc(Cl)c2)no1 (stereo unspecified) | inconclusive [activator, partial curve] | 
Cc1nccc(-c2ccc(-n3cnc4ccccc43)cc2)n1 |  | inactive: -0.503%
Cc1ccc(S(=O)(=O)/N=C(\Nc2cccc(C)c2)Nc2nc(C)cc(C)n2)cc1 |  | inactive: 5.44%
COc1ccc(CN(C(=O)c2ccc(-c3ccccc3)[nH]2)C(C(=O)NCC2CCCO2)c2ccc(C)o2)cc1 (stereo unspecified) | inconclusive [inhibitor, single point] | 
NC(=O)c1ccc2c(=O)n3c(-c4cc(Cl)c(N)c(Cl)c4)csc3nc2c1 | inconclusive [activator, single point] | 

Compound | Potency | activity, negative = inhibition
CNC(=S)Nc1ccc(-c2nc3ccc(C)cc3s2)cc1 |  | inactive: 2.62%
CCCCC1OC23CCCCC2C(C#N)(C(=N)O3)C1(C#N)C#N (stereo unspecified) |  | inactive: -4.02%
NC(=O)NNc1ccccc1 | inconclusive [activator, full curve] | 
C#CCCCO/N=C1/C[C@@H](O)[C@@H](O)[C@@H]2[C@@H]3C(=O)N([C@@H](C)c4ccccc4)C(=O)[C@H]3CC[C@@H]12 |  | inactive: 1.94% [at 13.1 µM]
O=C(O)c1cc(-c2ccc(N3CCOCC3)cc2)nn1-c1ccccc1Cl | inconclusive [inhibitor, single point] | 
CCOc1ccc(C(=O)Nc2ccc(-c3nc4ccccc4[nH]3)cc2)cc1[N+](=O)[O-] | inconclusive [activator, partial curve] | 
Nc1nnnn1/N=C/c1ccccn1 | inconclusive [inhibitor, single point] | 
Cc1ccccc1OCC(=O)Nc1ccc(Cc2ccncc2)cc1 |  | inactive: -3.27%
CCC(C)NC(=O)CNC(=S)N(Cc1ccccc1F)C1CCCCC1 (stereo unspecified) |  | inactive: 4.4%
COc1ccc(-c2nn(-c3ccccc3)cc2/C=N/NC(N)=S)cc1OC | inconclusive [inhibitor, partial curve] | 
COc1ccc(O)c(CNn2c(-c3ccc(Br)cc3)nc3ccccc3c2=O)c1 | inconclusive [activator, full curve] | 
CCOC(=O)c1c(C)c(C(=O)Nc2cc(F)ccc2F)c(C)n1C |  | inactive: -3.3%
COc1ccc(Cc2nnc(NC(=O)Cc3cccs3)s2)cc1OC | inconclusive [inhibitor, partial curve] | 
CN(Cc1cccs1)C(=O)/C=C/c1ccccc1[N+](=O)[O-] | inconclusive [inhibitor, full curve, poor fit] | 
CS(=O)(=O)c1ccc(C(=O)OCc2nnc(-c3ccccc3)o2)cc1[N+](=O)[O-] | inconclusive [inhibitor, single point] | 
COc1cc(C(=O)NCCCNc2nc3c(C)cc(C)cc3cc2C#N)cc(OC)c1OC | inconclusive [activator, single point] | 
Cc1c(C(=O)NCc2ccc3c(c2)OCO3)sc2nc(-c3ccc(F)cc3)cn12 |  | inactive: 6.12%
O=C(CSc1nnc(-c2ccco2)o1)NC(=O)C1COc2ccccc2O1 (stereo unspecified) | inconclusive [inhibitor, single point] | 
Clc1cccc(Nc2ncnc3c2cnn3-c2ccccc2)c1 | inconclusive [activator, single point] | 
CC(=O)Oc1cccc(C)c1 | inconclusive [activator, partial curve] | 
O=C(Nc1cc(S(=O)(=O)N2CCOCC2)ccc1N1CCCC1)c1ccc2c(c1)S(=O)(=O)c1ccccc1C2=O |  | inactive: -28.7%
c1ccc(CO/N=C(\c2ccc(C3CC3)nc2)C2CC2)cc1 | inconclusive [activator, partial curve, poor fit] | 

Compound | Potency | activity, negative = inhibition
O=C(NNC(=S)Nc1ccc(Cl)cc1Cl)c1ccncc1 |  | inactive: 0.343%
CCCCCCCCCCCC(CC1OC(=O)C1CCCCCC)OC(=O)C(CC(C)C)NC=O (stereo unspecified) | inconclusive [inhibitor, partial curve] | 
CCCCC/C=C\C/C=C\C/C=C\C/C=C\CCCC(=O)NCc1ccoc1 | inconclusive [inhibitor, single point] | 
N/C(=N/OC(=O)c1ccccc1Cl)c1ncc([N+](=O)[O-])s1 | inconclusive [inhibitor, single point] | 
O=C(CSc1nc2ccccc2[nH]1)NC1CCCC1 | inconclusive [inhibitor, single point] | 
Cc1ccc(C(=O)CSc2nnc(CNc3nc(-c4ccccc4)cs3)n2C)cc1 |  | inactive: -14%
CN=c1scc(-c2ccc(OC)cc2)n1/N=C(\C)c1cccnc1 | inconclusive [inhibitor, partial curve] | 
COC(=O)CSc1nnc(CNC(=O)c2ccc(OC)c(OC)c2)n1C | inconclusive [activator, single point] | 
CSc1ccccc1-c1n[nH]c(=S)o1 |  | inactive: -7.18%
COc1cc(NC(=O)c2nccnc2N)cc(C(=O)Nc2cccc(C(F)(F)F)c2)c1 | inconclusive [activator, partial curve, poor fit] | 
CN(C)c1ccc(C(CNS(=O)(=O)c2ccc3ccccc3c2)c2c[nH]c3ccccc23)cc1 (stereo unspecified) | inconclusive [inhibitor, partial curve] | 
Cc1[nH]n(-c2ccccc2)c(=O)c1N=Nc1ccc2c(c1)OCO2 | inconclusive [inhibitor, single point] | 
COc1ccc(CN2C(=O)NC(=O)/C(=C/c3ccoc3)C2=O)cc1 | inconclusive [inhibitor, single point] | 
Clc1ccccc1CN1CCN(/N=C/C=C/c2ccco2)CC1 | inconclusive [inhibitor, single point] | 
O=C(Oc1c(CN2CCOCC2)cc(Cl)c2cccnc12)c1cccs1 | inconclusive [inhibitor, full curve] | 
COc1ccc(C=C(c2ccc(OC)cc2)c2ccc(OC)cc2)cc1 | inconclusive [activator, partial curve] | 
C[C@H](NC(=O)[C@@H](N)Cc1ccc(O)cc1)C(=O)NCC(=O)N[C@H]1CSSC[C@@H](C(=O)O)NC(=O)[C@H](CO)NC(=O)[C@H]([C@@H](C)O)NC(=O)[C@H](Cc2ccccc2)NC(=O)[C@H]([C@@H](C)O)NC(=O)[C@H](CCCCN)NC(=O)[C@@H](Cc2c[nH]c3ccccc23)NC(=O)[C@H](Cc2ccccc2)NC(=O)[C@H](Cc2ccccc2)NC(=O)[C@H](CC(N)=O)NC(=O)[C@H](CCCCN)NC1=O |  | inactive: -2.38%
COc1cc(C=C(c2nc3ccccc3s2)c2nc3ccccc3s2)cc(OC)c1O | inconclusive [inhibitor, partial curve] | 
COc1cccc(NC2=Nc3cccc4cccc2c34)c1 |  | inactive: -28.2%
NC(=O)c1c(NC(=O)CSc2nnc(-c3ccco3)n2N)sc2c1CCCC2 | inconclusive [inhibitor, single point] | 
N#C/C(=C\c1ccc(N2CCOCC2)c([N+](=O)[O-])c1)c1nc2ccccc2[nH]1 | inconclusive [inhibitor, single point] | 
COC(=O)c1ccc([N+](=O)[O-])cc1N1C(=O)C2C3CCC(C3)C2C1=O (stereo unspecified) | inconclusive [inhibitor, single point] | 
